Laboratory results taken from the BET-seq Pho4 binding data (Le et al. 2018).
Some of the results follow. These are noisy estimates, calculated here from bound and input reads.

biological target: T1, Pho4 (S. cerevisiae) (UniProt P07270); test: relative binding free energy (BET-seq); higher = weaker binding; conditions: reference: library average
T1 sequence: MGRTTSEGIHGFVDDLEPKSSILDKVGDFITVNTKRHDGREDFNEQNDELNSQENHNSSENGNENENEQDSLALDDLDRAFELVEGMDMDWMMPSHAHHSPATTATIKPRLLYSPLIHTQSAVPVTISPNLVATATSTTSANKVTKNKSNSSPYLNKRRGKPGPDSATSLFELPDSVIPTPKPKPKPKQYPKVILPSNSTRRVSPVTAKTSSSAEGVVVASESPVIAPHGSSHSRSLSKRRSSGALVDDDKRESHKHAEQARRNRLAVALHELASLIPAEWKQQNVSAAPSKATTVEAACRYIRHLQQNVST

Sequence	relative binding free energy
AAGTTCACGTGTTTAG	0.37 kcal/mol
TTGTACACGTGTTTTT	0.22 kcal/mol
GGGGTCACGTGCATTA	0.21 kcal/mol
GGGTGCACGTGTATAA	0.04 kcal/mol
AGGGGCACGTGCCTAG	-0.25 kcal/mol
GGCGGCACGTGTCTGG	-0.09 kcal/mol
TGCAGCACGTGTAAGT	-0.06 kcal/mol
GAGGCCACGTGGGCGT	-0.18 kcal/mol
CTTTGCACGTGGGGCA	-0.09 kcal/mol
GGGAGCACGTGCGTTT	-0.12 kcal/mol
TTGTGCACGTGGTGTG	-0.1 kcal/mol
GAAGTCACGTGGGTGG	0.05 kcal/mol
ATTTGCACGTGGGGAA	0 kcal/mol
GGTGGCACGTGGAATG	-0.01 kcal/mol
GTTGGCACGTGGCGGC	-0.1 kcal/mol
TGCAGCACGTGGCGTG	-0.08 kcal/mol
GTGCGCACGTGACTGG	0.06 kcal/mol
GATGCCACGTGGGGGT	-0.19 kcal/mol
AAGTGCACGTGTGGAC	0.06 kcal/mol
GATGGCACGTGTGTTT	-0.07 kcal/mol
TCGTGCACGTGGGTTA	-0.25 kcal/mol
CGAACCACGTGGGGGG	-0.14 kcal/mol
CTAAGCACGTGTGTTG	-0.11 kcal/mol
TGGGGCACGTGAGGTT	0.16 kcal/mol
GTTCGCACGTGGCAGG	-0.07 kcal/mol

Sequence	relative binding free energy
CGTTACACGTGGGTGT	0.04 kcal/mol
AGGTGCACGTGGGTGG	-0.17 kcal/mol
CTGTGCACGTGATAAT	0.06 kcal/mol
GAGACCACGTGTGGTG	0.09 kcal/mol
TGAATCACGTGAGTAT	0.31 kcal/mol
TTTGGCACGTGGTCGG	-0.11 kcal/mol
GGGGGCACGTGGGACC	-0.09 kcal/mol
AATGGCACGTGTTTTA	0.11 kcal/mol
ATGTGCACGTGCTGGG	-0.09 kcal/mol
GGAGACACGTGGAGCG	-0.02 kcal/mol
TGGAACACGTGTTTAA	-0.01 kcal/mol
CTTATCACGTGAGGAG	0.27 kcal/mol
CATGTCACGTGTGGGA	0.12 kcal/mol
TGCGTCACGTGGTTTG	0.14 kcal/mol
CTTGTCACGTGCGAGT	0.11 kcal/mol
CATTGCACGTGGTTCG	0 kcal/mol
ATTTTCACGTGAGAGA	0.45 kcal/mol
TGAAACACGTGTTGGT	0.06 kcal/mol
TAATACACGTGTATAT	-0.05 kcal/mol
GTAATCACGTGTATGG	0.08 kcal/mol
AGTTACACGTGGTGGA	0.09 kcal/mol
TGTTTCACGTGATAAG	0.15 kcal/mol
ATTGCCACGTGTGTTA	0.01 kcal/mol
GCTGGCACGTGTCGTG	-0.15 kcal/mol
TGTATCACGTGGCATG	0.04 kcal/mol

Sequence	relative binding free energy
TGGCGCACGTGTATTA	-0.07 kcal/mol
CATTGCACGTGGTGGG	-0.1 kcal/mol
ATTCACACGTGGGGGT	-0.13 kcal/mol
AGTGGCACGTGGGACG	-0.12 kcal/mol
GCGTTCACGTGACGGG	0.39 kcal/mol
TAGCTCACGTGTGTAT	0.18 kcal/mol
GTCTGCACGTGTTAAT	0.07 kcal/mol
TGGTACACGTGGGTCC	-0.02 kcal/mol
TTATGCACGTGAAAGT	0.26 kcal/mol
TAAGTCACGTGATGGC	0.2 kcal/mol
TGTTTCACGTGGATGC	0.29 kcal/mol
AATAACACGTGTGGTT	-0.05 kcal/mol
GTTATCACGTGGGCTG	0.17 kcal/mol
TGGTCCACGTGGGGCG	-0.13 kcal/mol
AAATCCACGTGGGGTG	-0.2 kcal/mol
TTAAGCACGTGGCGGT	-0.14 kcal/mol
CTTATCACGTGGTTAA	0.18 kcal/mol
ATAAGCACGTGTGAGT	0.02 kcal/mol
CAGGTCACGTGTTGGG	0.09 kcal/mol
GGGTACACGTGTTGTC	0.21 kcal/mol
CAAGTCACGTGGGCGT	-0.01 kcal/mol
TAGTTCACGTGTCTGA	0.37 kcal/mol
GGTATCACGTGAGGGA	0.33 kcal/mol
GGTAACACGTGTTGGC	0.02 kcal/mol
GAGTACACGTGTAGGT	0.21 kcal/mol

Sequence	relative binding free energy
AATTTCACGTGATCGT	0.17 kcal/mol
ATATACACGTGGAGGG	0.09 kcal/mol
TATGCCACGTGGGGGT	-0.2 kcal/mol
TTATTCACGTGGAGGG	0.26 kcal/mol
ATAGCCACGTGGGTTA	-0.26 kcal/mol
GTGGGCACGTGTATCA	-0.04 kcal/mol
AGAAGCACGTGGTGGG	-0.12 kcal/mol
GGGTTCACGTGCGTCG	0.28 kcal/mol
GGTCGCACGTGGTCAG	-0.17 kcal/mol
TGTGGCACGTGGTACC	-0.19 kcal/mol
CTTTGCACGTGGTTGC	-0.08 kcal/mol
CTTGCCACGTGGAGGT	-0.07 kcal/mol
TGTGACACGTGGTCTG	-0.04 kcal/mol
ACAGGCACGTGTGGAG	-0.08 kcal/mol
TTGAACACGTGCTGGG	-0.06 kcal/mol
CGTTTCACGTGTAATA	0.27 kcal/mol
TCTTACACGTGGTGGT	0.08 kcal/mol
TAAGTCACGTGTGCTT	-0.03 kcal/mol
TTTGGCACGTGTTTAC	-0.14 kcal/mol
CTAGTCACGTGCGGTT	0.21 kcal/mol
CTTTTCACGTGTTTCG	0.24 kcal/mol
TTTTACACGTGACGGG	0.29 kcal/mol
GATAGCACGTGGAGGT	-0.02 kcal/mol
CAGGGCACGTGGGGGT	-0.19 kcal/mol
TATGCCACGTGTGGTA	-0.05 kcal/mol

Sequence	relative binding free energy
TTCTTCACGTGGGTTC	0.21 kcal/mol
TAGTGCACGTGAGGGC	0.31 kcal/mol
TGTGTCACGTGCGCGG	-0.11 kcal/mol
TTGATCACGTGATAAA	0.16 kcal/mol
ATTGGCACGTGCATTA	-0.24 kcal/mol
ATACTCACGTGGTGGG	0.17 kcal/mol
AAGCTCACGTGGTGCG	0.2 kcal/mol
TGAATCACGTGGCATG	0.08 kcal/mol
ATACTCACGTGTTTAT	0.19 kcal/mol
GATTGCACGTGAAGAG	0.39 kcal/mol
TGGGGCACGTGGTGAA	-0.15 kcal/mol
GTATTCACGTGTTTCG	0.24 kcal/mol
TAGGTCACGTGAAAAG	0.14 kcal/mol
AAATGCACGTGGCGGC	0.08 kcal/mol
GATTGCACGTGGACTG	0.13 kcal/mol
TGATGCACGTGTGGAG	0.09 kcal/mol
AGCTGCACGTGGTGAG	-0.08 kcal/mol
ATCGGCACGTGGCAGG	-0.23 kcal/mol
CGTTACACGTGATTTG	0.19 kcal/mol
CTGGTCACGTGGTTCG	0.19 kcal/mol
TGCTCCACGTGTGGTT	0.19 kcal/mol
AAGGTCACGTGGCGAG	0 kcal/mol
TGGTGCACGTGGAGAA	-0.1 kcal/mol
CTCGGCACGTGGGGGA	-0.16 kcal/mol
TTGGCCACGTGTTTTA	0.08 kcal/mol

Sequence	relative binding free energy
GTGGCCACGTGAAGTT	0.31 kcal/mol
AGTGGCACGTGCATGG	-0.21 kcal/mol
TAAGTCACGTGAAGGC	0.37 kcal/mol
AAGGTCACGTGATTGG	0.29 kcal/mol
GGACGCACGTGAATGT	0.2 kcal/mol
ATGTGCACGTGATAGT	0.13 kcal/mol
GTTCTCACGTGCTGGG	0.25 kcal/mol
GATACCACGTGTGTGG	-0.05 kcal/mol
CGTAGCACGTGATGTA	-0.05 kcal/mol
GACTGCACGTGGAGTG	0.03 kcal/mol
GAGTTCACGTGACGGT	0.33 kcal/mol
GTAGTCACGTGTCTAG	0.1 kcal/mol
TGTCCCACGTGTTGTT	-0.07 kcal/mol
ATGATCACGTGTAGTT	0.24 kcal/mol
CTATTCACGTGGTTGT	0.16 kcal/mol
GCTCGCACGTGTGGGT	-0.04 kcal/mol
GGGTTCACGTGGAGAG	0.36 kcal/mol
AGATACACGTGTCGGT	0.14 kcal/mol
GGAGTCACGTGAATGT	0.46 kcal/mol
GACGGCACGTGGGATG	-0.08 kcal/mol
TGGGACACGTGGCACG	-0.05 kcal/mol
